# Article PMC4336329 (PLoS ONE, 2015)
# The whole screen tested about 310,000 compounds, of which about 2,200 (0.71%) showed an effect of 50% or more. The effect is printed as a negative number. This is one part of the list.
# Target: human ether-à-go-go-related gene (hERG) potassium channel (human, UniProt Q12809)
# Assay: primary screen, population patch clamp on CHO cells stably expressing hERG
# Sequence of human ether-à-go-go-related gene (hERG) potassium channel (Q12809 whole entry, looked up): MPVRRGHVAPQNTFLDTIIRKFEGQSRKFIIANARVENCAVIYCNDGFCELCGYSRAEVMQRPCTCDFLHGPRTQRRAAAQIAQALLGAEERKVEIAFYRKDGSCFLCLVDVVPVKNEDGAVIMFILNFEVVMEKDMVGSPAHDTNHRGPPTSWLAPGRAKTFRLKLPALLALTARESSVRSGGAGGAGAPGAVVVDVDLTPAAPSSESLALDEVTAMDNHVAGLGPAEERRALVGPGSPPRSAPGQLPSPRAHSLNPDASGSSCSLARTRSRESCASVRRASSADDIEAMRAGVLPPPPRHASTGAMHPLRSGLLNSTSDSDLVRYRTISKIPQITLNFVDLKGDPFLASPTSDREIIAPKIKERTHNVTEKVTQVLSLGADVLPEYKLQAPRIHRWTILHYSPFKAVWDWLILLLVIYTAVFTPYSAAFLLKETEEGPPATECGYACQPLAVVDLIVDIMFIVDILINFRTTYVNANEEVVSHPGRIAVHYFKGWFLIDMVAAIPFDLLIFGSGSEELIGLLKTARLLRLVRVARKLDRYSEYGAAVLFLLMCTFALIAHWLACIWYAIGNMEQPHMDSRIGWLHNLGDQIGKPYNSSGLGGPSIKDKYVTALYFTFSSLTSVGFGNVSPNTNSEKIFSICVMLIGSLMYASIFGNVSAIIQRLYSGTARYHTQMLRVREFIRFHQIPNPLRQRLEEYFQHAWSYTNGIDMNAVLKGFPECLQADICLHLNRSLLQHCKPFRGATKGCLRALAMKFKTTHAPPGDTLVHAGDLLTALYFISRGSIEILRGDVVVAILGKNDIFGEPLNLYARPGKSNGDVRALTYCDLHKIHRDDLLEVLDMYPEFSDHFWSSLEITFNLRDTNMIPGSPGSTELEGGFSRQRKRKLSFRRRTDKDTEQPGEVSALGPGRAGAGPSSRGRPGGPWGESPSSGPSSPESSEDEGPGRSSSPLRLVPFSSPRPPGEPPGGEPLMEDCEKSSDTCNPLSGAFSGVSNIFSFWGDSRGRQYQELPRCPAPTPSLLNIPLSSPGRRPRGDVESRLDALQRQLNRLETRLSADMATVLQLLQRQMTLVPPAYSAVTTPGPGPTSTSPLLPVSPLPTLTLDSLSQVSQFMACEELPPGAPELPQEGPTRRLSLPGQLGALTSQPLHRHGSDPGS
row,SMILES,"hERG current change (%, negative = inhibition) at 1uM [%]"
1,CC(=O)c1ccc2c(c1)OCCOCCOCCOCCOCCO2,-11.8
2,COc1ccc(N2CC(C(=O)Nc3cccc(S(=O)(=O)N4CCCC4)c3)CC2=O)c(OC)c1 (stereo not shown),13.8
3,N#C/C(=C/c1ccc(-c2ccc(Br)cc2)o1)C(=O)NC1CCCCC1,9.83
4,COc1ccc(-c2cn3cc(Br)cnc3n2)cc1,8.73
5,CCn1c(=O)cc(SCC(=O)NCCN2CCN(Cc3ccccc3)CC2)c2ccccc21,0.451
6,CCOc1ccc(CNC(=O)C2CCCN(S(C)(=O)=O)C2)cc1OC (stereo not shown),0.57
7,COc1ccc(C2C(C(=O)Nc3cccc(C)n3)c3ccccc3C(=O)N2C)cc1 (stereo not shown),7.94
8,O=C(CSc1ncccc1C(=O)O)c1ccccc1,3.09
9,O=C(Cc1ccc([N+](=O)[O-])cc1)Nc1ccc2c(c1)CCC2,10.4
10,CCOc1ccc(C(=O)O[C@H]2[C@H](Cc3ccccc3)NS(=O)(=O)[C@H]3C[C@@H]4C=C[C@]23O4)cc1,15.4
11,CCOC(=O)Cc1csc(NC(=O)c2ccc(S(=O)(=O)N3CCCC3)cc2)n1,5.76
12,Cc1cccc(NC(=O)C2CCN(S(=O)(=O)c3ccc4c(c3)NC(=O)CO4)CC2)c1,15.2
13,COc1cc(Nc2c3ccccc3nc3ccccc23)cc(OC)c1OC,-32.7
14,COc1ccc(C)cc1NC(=O)NC1CCCc2ccccc21 (stereo not shown),0.501
15,COc1ccccc1Oc1ccc(S(=O)(=O)N2CCCCC2C)cc1 (stereo not shown),-0.757
16,O=C(CN1CCN(c2ccccc2O)CC1)Nc1cc([N+](=O)[O-])ccc1Cl,4.97
17,Cc1ccc(C(=O)N/C(=C\c2cccc([N+](=O)[O-])c2)C(=O)Nc2cccc(C(=O)O)c2)cc1,10.5
18,Cc1ccc(S(=O)(=O)Nc2cccc(-n3cnnn3)c2)cc1,5.4
19,Cc1oc(-c2cccc(Cl)c2)nc1CN1CCC(C(=O)NCc2cccnc2)CC1,-13
20,O=S(=O)(c1ccccc1)N1CCC2(CC1)OCCO2,16.4
21,COC(=O)C1=C(N)Oc2cc(C)n(C)c(=O)c2C1c1ccc(Cl)cc1 (stereo not shown),4.99
22,COC(=O)C1C(O)C(C)C(O)C(C)(O)/C=C\C=C(/C)C(=O)Nc2c(C)c(OC(C)=O)c3c(c2O)C(=O)C(C)=C2OCOC(=C23)/C(C)=C/C(C)(O)C(O)C(C)C1O (stereo not shown),7.93

row,SMILES,"hERG current change (%, negative = inhibition) at 1uM [%]"
1,O=C(COC(=O)/C=C/c1cccc(C(F)(F)F)c1)NCc1ccco1,19.7
2,CC1(C)Cc2c(cnn2-c2ccc(F)cc2)C(NC(=O)C2CCC2)C1 (stereo not shown),-56.8
3,O=C(Nc1ccc(Oc2cccnc2)cc1)C1CCN(Cc2cccc(Cl)c2)CC1,6.55
4,COCC(C)NC(=O)c1ccccc1[N+](=O)[O-] (stereo not shown),16.5
5,CCOC(=O)c1ccc(S(=O)(=O)NNS(=O)(=O)c2ccc(C)cc2)cc1,15.1
6,CC(=O)Nc1ccc(-c2cc(NC(C)=O)n(-c3ccccc3)n2)cc1,12.1
7,COc1ccc(NC(=O)c2ccccc2O)c(OC)c1,-1.74
8,CCN(CC)C(=O)Oc1ccc2c(=O)c(-c3ccc(OC)cc3)coc2c1,14.4
9,CC(=O)Nc1ccc(OC(=O)N(C)c2ccccc2)cc1,7.93
10,COCCN(CCOC)Cc1c(O)ccc2c1O/C(=C\c1ccco1)C2=O,19.1
11,CCCNC(=S)Nc1ccc(Nc2ccccc2)cc1,-1.84
12,CCOC(=O)N1CCN(c2c(NCCCN(CC)Cc3ccccc3)c(=O)c2=O)CC1,11.2
13,CCc1cc2ccccc2nc1SCC(=O)Nc1cc(OC)c(OC)cc1C(=O)O,3.77
14,CCC(OC(=O)c1nsc(Cl)c1Cl)C(=O)NC(C)(C)CC (stereo not shown),9.53
15,Cc1cc(C)c(C)c(S(=O)(=O)Nc2ccc(O)cc2)c1C,0.777
16,Cc1ccc(N=Cc2c(O)n(C)c(=O)n(C)c2=O)cc1,13.2
17,COc1ccc(F)cc1S(=O)(=O)N1CC(C)CC(C)C1 (stereo not shown),1.67
18,Cc1ccc(C)c(N2CCN(C(=O)c3cc(S(=O)(=O)N4CCOCC4)cn3C)CC2)c1,4.01
19,O=C(O)COc1ccc(C(=O)c2ccccc2)cc1,15.8
20,CC(C)c1cccc(C(C)C)c1OCCCCCN1CCOCC1,-2.25
21,O=C(CN1CCN(CN2C(=O)NC3(CCCCCC3)C2=O)CC1)Nc1cccc(F)c1,11.6
